According to patent EP4755878A1, “PHOTOCHROMIC COMPOUND, PHENOL DERIVATIVE, CURABLE COMPOSITION, OPTICAL ARTICLE, LENS, AND EYEGLASS” (TOKUYAMA CORPORATION, priority 2023, dated 2025):
The name of at least one read-out is uncertain.

Legend:
[1] = Photochromic properties of photochromic laminate (plastic lens) made by coating method; format: physicochemical; conditions: after 240 seconds irradiation at 23°C
Source text: First, the photochromic compound obtained in Example 1 above, a photoinitiator, and polymerizable compounds were mixed to obtain a curable composition.
As the polymerizable compounds, a blend of the following radically-polymerizable monomers in combination was used.
• Polyethylene glycol dimethacrylate (average molecular weight: 736): 42 parts by mass • Polyethylene glycol dimethacrylate (average molecular weight: 536): 12 parts by mass • Trimethylolpropane trimethacrylate: 38 parts by mass • γ-Methacryloyloxypropyltrimethoxysilane: 2 parts by mass • Glycidyl methacrylate: 1 part by mass.
Note that in the curable composition, the photochromic compound obtained in Example 1 above was added to be 0.25 mmol taking the total amount of the radically-polymerizable monomers as 100 g. The following were used as additives.
(stabilizer, Irganox 245): 1 part by mass Bis(1,2,2,6,6-pentamethyl-4-piperidyl) sebacate: 3 parts by mass Leveling agent from DuPont Toray Specialty Materials K.K. (L7001): 0.1 parts by mass.
Note that the above-mentioned additives are described with blending ratios taking a total of the radically-polymerizable monomers as 100 parts by mass.
Using this curable composition, a photochromic laminate was obtained by a lamination process described below with the polymerization described below being carried out.
First, a thiourethane plastic lens with a center thickness of 2 mm and a refractive index of 1.60 was prepared as an optical substrate. Note that the thiourethane plastic lens had been alkaline-etched beforehand in a 10% aqueous sodium hydroxide solution at 50°C for 5 minutes, and then thoroughly washed with distilled water.
A spin coater (1H-DX2, manufactured by MIKASA CO., LTD) was used to coat a surface of the above-mentioned plastic lens with a moisture-curable primer (product name: TR-SC-P, manufactured by Tokuyama Corporation) at a rotation speed of 70 rpm for 15 seconds, followed by at 1000 rpm for 10 seconds. Then, about 2 g of the photochromic curable composition obtained as above was spin-coated at a rotation speed of 60 rpm for 40 seconds, followed by at 600 rpm for 10 to 20 seconds so as to achieve a photochromic coating layer with a film thickness of 40 µm.
The lens having the surface coated with the photochromic curable composition (photochromic coating layer) was irradiated with light for 90 seconds in a nitrogen gas atmosphere using a metal halide lamp with an output of 200 mW/cm^2 to cure the coating film. The coating was then further heated at 110°C for 1 hour to produce a photochromic laminate with a photochromic layer.
Photochromic laminates were produced using the photochromic compounds obtained in Examples 2 to 19 in the same manner as in Example 20.
Photochromic laminates were obtained in the same manner as in Example 20 using photochromic compounds represented by the following formulas (A) to (F). [drawing 143] [drawing 144] [drawing 145] [drawing 146] [drawing 147] [drawing 148] [drawing 149] [drawing 150]
The resulting photochromic laminates were evaluated by the methods described below.
Table 3 summarizes the results of Examples 20, 32, and 34, and Comparative Examples 1 to 6, and Table 4 summarizes the results of Examples 21 to 31, 33, and 35 to 38. The relationship between the fading half-life at 23°C and the color development ratio at the higher temperature of the photochromic laminates according to Examples and Comparative Examples are shown in a graph in FIG. 1.
Photochromic laminates were formed using the photochromic compound obtained in Examples 61 to 71 in the same manner as in Example 20.

[2] = Photochromic properties of photochromic cured product made by kneading method; format: physicochemical; conditions: after 240 seconds irradiation at 23°C
Source text: First, the photochromic compound obtained in Example 1, additives, and polymerizable compounds were mixed to obtain a curable composition. As the polymerizable compounds, a blend of the following polymerizable monomers in combination was used. • 1,3-Bis(isocyanatomethyl)cyclohexane: 36.7 parts by mass Pentaerythritol tetrakis(3-mercaptopropionate): 39.4 parts by mass • Polyoxyethylene polyoxypropylene lauryl ether (WONDERSURF 140 from Aoki Oil Industrial Co., Ltd.): 17.4 parts by mass 1-Decanethiol: 2.8 parts by mass • RX-1 prepared according to the method described in Patent Document 12: 3.8 parts by mass Note that in the curable composition, the photochromic compound was added to be 0.106 mmol taking the total amount of the polymerizable monomers as 100 g.
The following additives were used. Dimethyltin dichloride: 0.05 parts by mass • Irganox 245 from BASF Japan Ltd.: 0.1 parts by mass • 2-Ethylhexyl 4-methoxycinnamate: 0.6 parts by mass
The prepared curable composition was sufficiently degassed, and then injected into a glass mold provided with a gap of 1 mm, and the curable composition was polymerized via casting polymerization. […] After the polymerization, the cured product was removed from the glass mold, to obtain photochromic cured product having a thickness of 1 mm. The resulting photochromic cured product was evaluated in the same manner as in Example 23.
(Examples 51 to 60, and Comparative Examples 11 to 14) Photochromic cured products were formed using the photochromic compound shown in Table 6 in the same manner as in Example 50.

## COc1ccc(C2(c3ccc(OC)cc3)C=Cc3c4c(c5ccc(OC)cc5c3O2)-c2ccc(N3CCOc5ccccc53)cc2C4(C)C)cc1 [Formula (13-2)]
[1]; first absorption wavelength
  Fading half-life at 23°C: 1.87 min
[1]; second absorption wavelength
  Fading half-life at 23°C: 1.88 min
[2]; first absorption wavelength
  Fading half-life at 23°C: 2.65 min
[2]; second absorption wavelength
  Fading half-life at 23°C: 2.67 min

## COc1ccc(C2(c3ccc(OC)cc3)C=Cc3c4c(c5ccc(OC)cc5c3O2)-c2ccc(N(c3ccccc3)c3ccccc3)cc2C4(C)C)cc1 [Formula (15-2)]
[1]; first absorption wavelength
  Fading half-life at 23°C: 1.98 min
[1]; second absorption wavelength
  Fading half-life at 23°C: 2 min
[2]; first absorption wavelength
  Fading half-life at 23°C: 2.83 min
[2]; second absorption wavelength
  Fading half-life at 23°C: 2.83 min

## COCC1(COC)c2cc(N(C)c3ccccc3)ccc2-c2c1c1c(c3ccccc23)OC(c2ccc(OC)cc2)(c2ccc(OC)c(F)c2)C=C1 (stereo not drawn) [Formula (16-3)]
[1]; first absorption wavelength
  Fading half-life at 23°C: 1.33 min
[1]; second absorption wavelength
  Fading half-life at 23°C: 1.33 min
[2]; first absorption wavelength
  Fading half-life at 23°C: 2 min
[2]; second absorption wavelength
  Fading half-life at 23°C: 1.98 min
